The supplement of paper PMC4967469
Lines with a small IC50 respond at low doses; fits outside the tested doses are given as limits. AUC is the area under the same curve over the 256-fold range up to the top dose, as a fraction: 1 means no effect, lower means more sensitive. A top dose marked as inferred was derived from the fitted curves, not read from the paper.

Legend:
[1] = compound: CCN(CC)CCCCNc1ncc2cc(-c3cc(OC)cc(OC)c3)c(NC(=O)NC(C)(C)C)nc2n1 [PD-173074]; experiment: Viability of human cancer cell lines after 72 h of drug (GDSC screen); details: top dose 2 µM; top dose inferred
Method: (§1)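 Human cancer cell lines in 384-well plates, medium with 10% serum, drug for 72 h over a 256-fold dose range (nine 2-fold or five 4-fold steps up to the top dose). Adherent lines were fixed and stained with the nucleic acid dye Syto60, suspension lines read with resazurin; signal relative to control wells, capped at 0 and 100%. One two-parameter sigmoid per drug and line, fitted in a mixed model over all curves with the slope shared within a line.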

[2] = compound: CN(C)CCOc1ccc(-c2nc(-c3ccncc3)c(-c3ccc4c(c3)CC/C4=N\O)[nH]2)cc1 [SB590885]; experiment: as above; details: top dose 5 µM; top dose inferred
Method: as §1

Row | Cell Line | AUC [1] | IC50 [1] [µM] | AUC [2] | IC50 [2] [µM]
1 | STS-0421 (soft tissue, adherent) | 0.484 | 0.113 | 0.983 | > 5
2 | MG-63 (osteosarcoma, adherent) | 0.843 | 1.77 | 0.984 | > 5
3 | SCC-9 (head and neck, adherent) | 0.947 | > 2 | 0.94 | > 5
4 | huH-1 (liver, adherent) | 0.975 | > 2 | 0.978 | > 5
5 | COLO-783 (melanoma, adherent) | 0.991 | > 2 | 0.801 | 2.33
6 | OACp4C (oesophagus, adherent) | 0.979 | > 2 | 0.972 | > 5
7 | SNU-423 (liver, adherent) | 0.982 | > 2 | 0.983 | > 5
8 | SK-GT-2 (stomach, adherent) | 0.986 | > 2 | 0.986 | > 5
9 | H2461 (mesothelioma, adherent) | 0.983 | > 2 | 0.983 | > 5
10 | DU-145 (prostate, adherent) | 0.746 | 0.701 | 0.94 | > 5
11 | MDA-MB-231 (breast, adherent) | 0.97 | > 2 | 0.949 | > 5
12 | HDQ-P1 (breast, adherent) | 0.985 | > 2 | 0.982 | > 5
13 | MOLM-16 (acute myeloid leukaemia, suspension) | 0.834 | 1.09 | 0.986 | > 5
14 | KATOIII (stomach, semi-adherent) | 0.297 | 0.0355 | 0.99 | > 5
15 | CAL-33 (head and neck, adherent) | 0.919 | > 2 | 0.975 | > 5
16 | HEC-1 (endometrium, adherent) | 0.978 | > 2 | 0.974 | > 5
17 | SK-OV-3 (ovary, adherent) | 0.981 | > 2 | 0.981 | > 5
18 | IPC-298 (melanoma, adherent) | 0.982 | > 2 | 0.961 | > 5
19 | Saos-2 (osteosarcoma, adherent) | 0.976 | > 2 | 0.952 | > 5
20 | WM35 (melanoma, adherent) | 0.984 | > 2 | 0.81 | 2.66
21 | KYSE-450 (oesophagus, adherent) | 0.976 | > 2 | 0.988 | > 5
22 | JHOS-3 (ovary, adherent) | 0.984 | > 2 | 0.984 | > 5
23 | IGROV-1 (ovary, adherent) | 0.871 | > 2 | 0.977 | > 5
24 | DAN-G (pancreas, adherent) | 0.987 | > 2 | 0.991 | > 5
25 | KU-19-19 (bladder, adherent) | 0.983 | > 2 | 0.97 | > 5

Row | Cell Line | AUC [1] | IC50 [1] [µM] | AUC [2] | IC50 [2] [µM]
26 | PANC-03-27 (pancreas, adherent) | 0.989 | > 2 | 0.988 | > 5
27 | LN-405 (glioma, adherent) | 0.975 | > 2 | 0.96 | > 5
28 | KOPN-8 (B-cell leukaemia, suspension) | 0.988 | > 2 | 0.951 | > 5
29 | NCI-H460 (large cell lung carcinoma, adherent) | 0.986 | > 2 | 0.99 | > 5
30 | UWB1.289 (ovary, adherent) | 0.972 | > 2 | 0.979 | > 5
31 | COLO-679 (melanoma, adherent) | 0.978 | > 2 | 0.484 | 0.282
32 | PANC-10-05 (pancreas, adherent) | 0.972 | > 2 | 0.982 | > 5
33 | WM793B (melanoma, adherent) | 0.984 | > 2 | 0.881 | > 5
34 | SNU-449 (liver, adherent) | 0.978 | > 2 | 0.986 | > 5
35 | COR-L321 (lung, suspension) | 0.96 | > 2 | 0.979 | > 5
36 | RCC-FG2 (kidney, adherent) | 0.93 | > 2 | 0.982 | > 5
37 | CAL-54 (kidney, adherent) | 0.973 | > 2 | 0.984 | > 5
38 | MOG-G-UVW (glioma, adherent) | 0.949 | > 2 | 0.964 | > 5
39 | JEG-3 (urogenital system, adherent) | 0.97 | > 2 | 0.982 | > 5
40 | G-402 (soft tissue, adherent) | 0.897 | > 2 | 0.965 | > 5
41 | SW626 (ovary, adherent) | 0.984 | > 2 | 0.978 | > 5
42 | DoTc2-4510 (cervix, adherent) | 0.956 | > 2 | 0.963 | > 5
43 | PC-3 [JPC-3] (lung adenocarcinoma, adherent) | 0.981 | > 2 | 0.981 | > 5
44 | JHU-011 (head and neck, adherent) | 0.923 | > 2 | 0.899 | > 5
45 | SJRH30 (rhabdomyosarcoma, adherent) | 0.959 | > 2 | 0.979 | > 5
46 | CCK-81 (large intestine, adherent) | 0.976 | > 2 | 0.917 | > 5
47 | OCUM-1 (stomach, adherent) | 0.987 | > 2 | 0.986 | > 5
48 | SW948 (large intestine, adherent) | 0.918 | > 2 | 0.894 | > 5
49 | CADO-ES1 (Ewing sarcoma, suspension) | 0.961 | > 2 | 0.969 | > 5
